# According to the supplement of paper PMC8728848:
# This is one part of the list.
# B1: rAAL-I144G (Agrocybe aegerita), Q6WY08 (protein)
# chain: MQGVNIYNISAGTSVDLAAPVTTGDIVTFFSSALNLNAGAGNPNNTTLNLFAENGAYLLHIAFRLQENVIIFNSRQPDGPWLVEQRVSDVANQFAGIDGKAMVTVFDHGDKYQVVINEKTVIQYTKQISGLTLSLSYNATEETSGFSTVVEAVTYTGLALEHHHHHH
# Columns and labels:
# Test in all cases: glycan array binding signal (z-score within array); higher = stronger binding
# Conditions in all cases: glycan notation: IUPAC condensed, linker removed; mutation: I144G
# [1] = target: Neu5Ac(a2-3)Gal(b1-4)GlcNAc(b1-3)[Neu5Ac(a2-3)Gal(b1-4)GlcNAc(b1-6)]GalNAc
# How it was run: (§1)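 Glycan array binding is given as a within-array Z-score, which can be read as non-binding when negative. The arrays, 3228 of them, came from the Consortium for Functional Glycomics database and were retained only where the protein sequence was available. Z-scores were averaged across arrays of the same protein sequence at different concentrations or buffers and across linkers.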
# [2] = target: Neu5Ac(a2-3)Gal(b1-4)GlcNAc(b1-6)GalNAc
# How it was run: as §1
# [3] = target: Neu5Ac(a2-3)Gal(b1-4)GlcNAc(b1-6)[Gal(b1-3)]GalNAc
# How it was run: as §1
# [4] = target: Neu5Ac(a2-3)Gal(b1-4)GlcNAc(b1-6)[Neu5Ac(a2-3)Gal(b1-3)]GalNAc
# How it was run: as §1
# [5] = target: Neu5Ac(a2-3)Gal(b1-4)GlcNAc6S
# How it was run: as §1
# [6] = target: Neu5Ac(a2-3)Gal(b1-4)[Fuc(a1-3)]GlcNAc
# How it was run: as §1
# [7] = target: Neu5Ac(a2-3)Gal(b1-4)[Fuc(a1-3)]GlcNAc(b1-2)Man
# How it was run: as §1
# [8] = target: Neu5Ac(a2-3)Gal(b1-4)[Fuc(a1-3)]GlcNAc(b1-3)Gal
# How it was run: as §1
# [9] = target: Neu5Ac(a2-3)Gal(b1-4)[Fuc(a1-3)]GlcNAc(b1-3)Gal(b1-4)GlcNAc
# How it was run: as §1
# [10] = target: Neu5Ac(a2-3)Gal(b1-4)[Fuc(a1-3)]GlcNAc(b1-3)Gal(b1-4)[Fuc(a1-3)]GlcNAc(b1-3)Gal(b1-4)[Fuc(a1-3)]GlcNAc
# How it was run: as §1
# [11] = target: Neu5Ac(a2-3)Gal(b1-4)[Fuc(a1-3)]GlcNAc(b1-3)GalNAc
# How it was run: as §1
# [12] = target: Neu5Ac(a2-3)Gal(b1-4)[Fuc(a1-3)]GlcNAc(b1-6)[Gal(b1-3)]GalNAc
# How it was run: as §1
# [13] = target: Neu5Ac(a2-3)Gal(b1-4)[Fuc(a1-3)]GlcNAc(b1-6)[Neu5Ac(a2-3)Gal(b1-3)]GalNAc
# How it was run: as §1
# [14] = target: Neu5Ac(a2-3)Gal(b1-4)[Fuc(a1-3)]GlcNAc6S
# How it was run: as §1
# [15] = target: Neu5Ac(a2-3)Gal6S(b1-4)GlcNAc
# How it was run: as §1
# [16] = target: Neu5Ac(a2-3)Gal6S(b1-4)[Fuc(a1-3)]GlcNAc
# How it was run: as §1
# Neu5Ac(a2-3)GalNAc = target: Neu5Ac(a2-3)GalNAc
# How it was run: as §1
# [17] = target: Neu5Ac(a2-3)GalNAc(b1-4)GlcNAc
# How it was run: as §1
# [18] = target: Neu5Ac(a2-3)[GalNAc(b1-4)]Gal(b1-4)Glc
# How it was run: as §1
# [19] = target: Neu5Ac(a2-3)[GalNAc(b1-4)]Gal(b1-4)GlcNAc
# How it was run: as §1
# [20] = target: Neu5Ac(a2-3)[GalNAc(b1-4)]Gal(b1-4)GlcNAc(b1-3)GalNAc
# How it was run: as §1
# [21] = target: Neu5Ac(a2-3)[Neu5Ac(a2-6)]GalNAc
# How it was run: as §1
# Neu5Ac(a2-6)Gal = target: Neu5Ac(a2-6)Gal
# How it was run: as §1
# [22] = target: Neu5Ac(a2-6)Gal(b1-3)GlcNAc(b1-3)[Gal(b1-4)GlcNAc(b1-6)]Gal(b1-4)Glc
# How it was run: as §1
# Neu5Ac(a2-6)Gal(b1-4)Glc = target: Neu5Ac(a2-6)Gal(b1-4)Glc
# How it was run: as §1
# [23] = target: Neu5Ac(a2-6)Gal(b1-4)GlcNAc
# How it was run: as §1
# [24] = target: Neu5Ac(a2-6)Gal(b1-4)GlcNAc(b1-2)Man
# How it was run: as §1
# [25] = target: Neu5Ac(a2-6)Gal(b1-4)GlcNAc(b1-2)Man(a1-3)Man(b1-4)GlcNAc(b1-4)GlcNAc
# How it was run: as §1
# [26] = target: Neu5Ac(a2-6)Gal(b1-4)GlcNAc(b1-2)Man(a1-3)[Gal(b1-4)GlcNAc(b1-2)Man(a1-6)]Man(b1-4)GlcNAc(b1-4)GlcNAc
# How it was run: as §1
# [27] = target: Neu5Ac(a2-6)Gal(b1-4)GlcNAc(b1-2)Man(a1-3)[GlcNAc(b1-2)Man(a1-6)]Man(b1-4)GlcNAc(b1-4)GlcNAc
# How it was run: as §1
# [28] = target: Neu5Ac(a2-6)Gal(b1-4)GlcNAc(b1-2)Man(a1-3)[GlcNAc(b1-4)][Neu5Ac(a2-6)Gal(b1-4)GlcNAc(b1-2)Man(a1-6)]Man(b1-4)GlcNAc(b1-4)GlcNAc
# How it was run: as §1
# [29] = target: Neu5Ac(a2-6)Gal(b1-4)GlcNAc(b1-2)Man(a1-3)[Man(a1-6)]Man(b1-4)GlcNAc(b1-4)GlcNAc
# How it was run: as §1
# [30] = target: Neu5Ac(a2-6)Gal(b1-4)GlcNAc(b1-2)Man(a1-3)[Neu5Ac(a2-3)Gal(b1-4)GlcNAc(b1-2)Man(a1-6)]Man(b1-4)GlcNAc(b1-4)GlcNAc
# How it was run: as §1
# [31] = target: Neu5Ac(a2-6)Gal(b1-4)GlcNAc(b1-2)Man(a1-3)[Neu5Ac(a2-6)Gal(b1-4)GlcNAc(b1-2)Man(a1-6)]Man(b1-4)GlcNAc(b1-4)GlcNAc
# How it was run: as §1
# [32] = target: Neu5Ac(a2-6)Gal(b1-4)GlcNAc(b1-2)Man(a1-3)[Neu5Ac(a2-6)Gal(b1-4)GlcNAc(b1-2)Man(a1-6)]Man(b1-4)GlcNAc(b1-4)[Fuc(a1-6)]GlcNAc
# How it was run: as §1
# [33] = target: Neu5Ac(a2-6)Gal(b1-4)GlcNAc(b1-2)Man(a1-6)Man(b1-4)GlcNAc(b1-4)GlcNAc
# How it was run: as §1
# [34] = target: Neu5Ac(a2-6)Gal(b1-4)GlcNAc(b1-2)Man(a1-6)[Gal(b1-4)GlcNAc(b1-2)Man(a1-3)]Man(b1-4)GlcNAc(b1-4)GlcNAc
# How it was run: as §1
# [35] = target: Neu5Ac(a2-6)Gal(b1-4)GlcNAc(b1-2)Man(a1-6)[GlcNAc(b1-2)Man(a1-3)]Man(b1-4)GlcNAc(b1-4)GlcNAc
# How it was run: as §1
# [36] = target: Neu5Ac(a2-6)Gal(b1-4)GlcNAc(b1-2)Man(a1-6)[Man(a1-3)]Man(b1-4)GlcNAc(b1-4)GlcNAc
# How it was run: as §1
# [37] = target: Neu5Ac(a2-6)Gal(b1-4)GlcNAc(b1-2)[Neu5Ac(a2-6)Gal(b1-4)GlcNAc(b1-4)]Man(a1-3)[GlcNAc(b1-4)][Neu5Ac(a2-6)Gal(b1-4)GlcNAc(b1-2)[Neu5Ac(a2-6)Gal(b1-4)GlcNAc(b1-6)]Man(a1-6)]Man(b1-4)GlcNAc(b1-4)GlcNAc
# How it was run: as §1
# [38] = target: Neu5Ac(a2-6)Gal(b1-4)GlcNAc(b1-2)[Neu5Ac(a2-6)Gal(b1-4)GlcNAc(b1-4)]Man(a1-3)[GlcNAc(b1-4)][Neu5Ac(a2-6)Gal(b1-4)GlcNAc(b1-4)Man(a1-6)]Man(b1-4)GlcNAc(b1-4)GlcNAc
# How it was run: as §1
# [39] = target: Neu5Ac(a2-6)Gal(b1-4)GlcNAc(b1-2)[Neu5Ac(a2-6)Gal(b1-4)GlcNAc(b1-6)]Man(a1-6)[Neu5Ac(a2-6)Gal(b1-4)GlcNAc(b1-2)Man(a1-3)][GlcNAc(b1-4)]Man(b1-4)GlcNAc(b1-4)GlcNAc
# How it was run: as §1
# [40] = target: Neu5Ac(a2-6)Gal(b1-4)GlcNAc(b1-3)Gal(b1-3)GlcNAc
# How it was run: as §1
# [41] = target: Neu5Ac(a2-6)Gal(b1-4)GlcNAc(b1-3)Gal(b1-4)GlcNAc
# How it was run: as §1
# [42] = target: Neu5Ac(a2-6)Gal(b1-4)GlcNAc(b1-3)Gal(b1-4)GlcNAc(b1-2)Man(a1-3)[Neu5Ac(a2-6)Gal(b1-4)GlcNAc(b1-3)Gal(b1-4)GlcNAc(b1-2)Man(a1-6)]GalNAc
# How it was run: as §1
binder,measurement,setting,value
B1,glycan array binding signal (z-score),[1],-0.083
same,glycan array binding signal (z-score),[2],-0.197
same,glycan array binding signal (z-score),[3],-0.179
same,glycan array binding signal (z-score),[4],0.584
same,glycan array binding signal (z-score),[5],-0.146
same,glycan array binding signal (z-score),[6],-0.12
same,glycan array binding signal (z-score),[7],-0.107
same,glycan array binding signal (z-score),[8],-0.169
same,glycan array binding signal (z-score),[9],-0.075
same,glycan array binding signal (z-score),[10],-0.032
same,glycan array binding signal (z-score),[11],-0.096
same,glycan array binding signal (z-score),[12],-0.045
same,glycan array binding signal (z-score),[13],-0.121
same,glycan array binding signal (z-score),[14],-0.126
same,glycan array binding signal (z-score),[15],-0.167
same,glycan array binding signal (z-score),[16],-0.227
same,glycan array binding signal (z-score),Neu5Ac(a2-3)GalNAc,-0.092
same,glycan array binding signal (z-score),[17],-0.11
same,glycan array binding signal (z-score),[18],-0.14
same,glycan array binding signal (z-score),[19],-0.057
same,glycan array binding signal (z-score),[20],-0.153
same,glycan array binding signal (z-score),[21],-0.052
same,glycan array binding signal (z-score),Neu5Ac(a2-6)Gal,-0.158
same,glycan array binding signal (z-score),[22],-0.1
same,glycan array binding signal (z-score),Neu5Ac(a2-6)Gal(b1-4)Glc,-0.149
same,glycan array binding signal (z-score),[23],-0.13
same,glycan array binding signal (z-score),[24],-0.124
same,glycan array binding signal (z-score),[25],-0.153
same,glycan array binding signal (z-score),[26],-0.17
same,glycan array binding signal (z-score),[27],-0.121
same,glycan array binding signal (z-score),[28],-0.192
same,glycan array binding signal (z-score),[29],-0.114
same,glycan array binding signal (z-score),[30],-0.108
same,glycan array binding signal (z-score),[31],-0.111
same,glycan array binding signal (z-score),[32],-0.049
same,glycan array binding signal (z-score),[33],-0.119
same,glycan array binding signal (z-score),[34],-0.147
same,glycan array binding signal (z-score),[35],-0.12
same,glycan array binding signal (z-score),[36],-0.001
same,glycan array binding signal (z-score),[37],-0.165
same,glycan array binding signal (z-score),[38],-0.144
same,glycan array binding signal (z-score),[39],-0.164
same,glycan array binding signal (z-score),[40],-0.088
same,glycan array binding signal (z-score),[41],-0.176
same,glycan array binding signal (z-score),[42],-0.13
